From a collection of fitness landscapes (doi:10.1016/j.celrep.2020.107928)
In all, about 81,000 sequences were measured (“one-hybrid fitness for binding NBS DNA”: median about -0.1, highest 2% from about 0.36 on). This is one part of the list.

B1: Caulobacter ParB omega fusion; a variant is named by its letters at X, in order, B8GW30 (parent)
chain: MESVVVGEPGMSEGRRGLGRGLSALLGEVDAAPAQAPGEQLGGSREAPIEILQRNPDQPRRTFREEDLEDLSNSIREKGVLQPILVRPSPDTAGEYQIVAGERAWRAAQRAGLKTVPIMVRELDDLAVLEIGIIENVQRADLNVLEEALSYKVLMEKFERTQENIAQTIGKSXSHVANXMRLLXLPDEVQSYLVSGELTAXHARAIAAAADPVALAKQIIEGGLSVRETEALARKAPNLSAGKSKGGRPPRVKDTDTQALESDLSSVLGLDVSIDHRGSTGTLTITYATLEQLDDLCNRLTRGI

Variants of: B1
Test: one-hybrid fitness for binding NBS DNA (the Noc-binding site; scaled: cognate 1, non-cognate 0); higher = stronger binding
Conditions: with NBS DNA site
Method in brief: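 Selection: bacterial one-hybrid in E. coli USO, HIS3 reporter with the site 19 bp from the promoter, 48 hours at 37°C on M9-minus-histidine plus 0.1 mM IPTG and 5 mM 3-AT. Libraries were Caulobacter ParB with four randomised specificity codons, sequenced on Illumina before and after selection. Fitness is the rescaled log change in variant-to-wild-type read ratio, anchored to the cognate and non-cognate sites.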

Variant	one-hybrid fitness for binding NBS DNA
VRKH	0.208
TMPM	≤ 0.2
ISKS	≤ 0.2
HEER	≤ 0.2
MQLP	≤ 0.2
WNHC	≤ 0.2
LCNM	≤ 0.2
PCCC	≤ 0.2
CDHF	≤ 0.2
LYVG	≤ 0.2
GHND	≤ 0.2
FKPT	≤ 0.2
YHLT	≤ 0.2
TITR	≤ 0.2
TGHF	≤ 0.2
QCNC	≤ 0.2
HDRT	≤ 0.2
TGHS	≤ 0.2
HNRP	≤ 0.2
DNYM	≤ 0.2
SWQI	≤ 0.2
RPLY	≤ 0.2
YHCN	≤ 0.2
LRNS	≤ 0.2

Variant	one-hybrid fitness for binding NBS DNA
CVLG	≤ 0.2
QPGV	≤ 0.2
ENRS	≤ 0.2
RGTV	≤ 0.2
QCMV	≤ 0.2
SKST	≤ 0.2
IEIW	≤ 0.2
AQLR	≤ 0.2
FFRV	≤ 0.2
TWLS	≤ 0.2
PQQP	≤ 0.2
TRYC	≤ 0.2
QTNR	0.936
AQPW	≤ 0.2
PKDC	≤ 0.2
RLDQ	≤ 0.2
KLQT	≤ 0.2
DRGC	≤ 0.2
RPHG	≤ 0.2
DMYS	≤ 0.2
LFQS	≤ 0.2
QAEM	≤ 0.2
ARRD	≤ 0.2
TRLP	≤ 0.2

Variant	one-hybrid fitness for binding NBS DNA
PHRK	≤ 0.2
KSKH	≤ 0.2
NRTI	≤ 0.2
YSCT	≤ 0.2
CTDS	≤ 0.2
NMFN	≤ 0.2
CGRV	≤ 0.2
LLTG	≤ 0.2
YRDT	≤ 0.2
IGPL	≤ 0.2
HIPL	≤ 0.2
APDR	≤ 0.2
ISHT	≤ 0.2
QPAK	≤ 0.2
GFQS	≤ 0.2
ASSY	≤ 0.2
GDRV	≤ 0.2
LSTM	≤ 0.2
MAIC	≤ 0.2
LPPE	≤ 0.2
CRGG	≤ 0.2
ELRY	≤ 0.2
YMLN	≤ 0.2
REQG	≤ 0.2

Variant	one-hybrid fitness for binding NBS DNA
TSKC	≤ 0.2
RVKN	0.203
QMYN	≤ 0.2
CRYG	≤ 0.2
ALNF	≤ 0.2
FMTP	≤ 0.2
WNIV	≤ 0.2
DTER	≤ 0.2
PHTF	≤ 0.2
LVLC	≤ 0.2
RLTR	0.443
TQNE	≤ 0.2
WNLP	≤ 0.2
RCDR	0.255
RAFL	≤ 0.2
FPLI	≤ 0.2
APHS	≤ 0.2
TQNK	≤ 0.2
TFKG	≤ 0.2
ATNK	≤ 0.2
HLSI	≤ 0.2
WLCR	≤ 0.2
SCES	≤ 0.2
MILS	≤ 0.2

Variant	one-hybrid fitness for binding NBS DNA
YLPE	≤ 0.2
PKMS	≤ 0.2
SVDI	≤ 0.2
AKTF	≤ 0.2
PVYI	≤ 0.2
RMWR	0.289
WQPK	≤ 0.2
APWK	≤ 0.2
IVFT	≤ 0.2
AIVP	≤ 0.2
DPIG	≤ 0.2
NCEM	≤ 0.2
NFPF	≤ 0.2
LEAN	0.333
LVPS	≤ 0.2
PSGE	≤ 0.2
CNLT	≤ 0.2
QLRS	0.586
ILAK	≤ 0.2
TWRH	≤ 0.2
VDES	≤ 0.2
YRFT	≤ 0.2
RGEG	≤ 0.2
RMRV	0.24

Variant	one-hybrid fitness for binding NBS DNA
ALPG	≤ 0.2
VALV	≤ 0.2
HAYL	≤ 0.2
QMVP	≤ 0.2
ITKA	≤ 0.2
AINR	≤ 0.2
ASYL	≤ 0.2
LLDN	≤ 0.2
QSHK	≤ 0.2
MPMY	≤ 0.2
CNLY	≤ 0.2
YPDM	≤ 0.2
NMCN	≤ 0.2
MRVQ	≤ 0.2
KCGT	≤ 0.2
TLTI	≤ 0.2
HPQM	≤ 0.2
EVIR	≤ 0.2
QKFI	≤ 0.2
NSRP	≤ 0.2
DTQT	≤ 0.2
QVYV	≤ 0.2
TPNN	≤ 0.2
CVYR	≤ 0.2

Variant	one-hybrid fitness for binding NBS DNA
VENR	≤ 0.2
PIRN	≤ 0.2
TSTM	≤ 0.2
RHAL	≤ 0.2
RPLF	≤ 0.2
KYAE	≤ 0.2
PDIL	≤ 0.2
SYTV	≤ 0.2
NGAF	≤ 0.2
YHMT	≤ 0.2
RTWI	≤ 0.2
ANGG	≤ 0.2
YCSG	≤ 0.2
TLNT	≤ 0.2
HVDM	≤ 0.2
SPRS	≤ 0.2
EMAM	≤ 0.2
MGQN	≤ 0.2
NCRE	≤ 0.2
QHTA	0.24
KRLH	≤ 0.2
MCDG	≤ 0.2
WPCC	≤ 0.2
ALAH	≤ 0.2

Variant	one-hybrid fitness for binding NBS DNA
QMET	0.295
NWRV	≤ 0.2
HTGH	≤ 0.2
HTQT	≤ 0.2
EWIR	≤ 0.2
PYQW	≤ 0.2
RWSK	≤ 0.2
PTHF	≤ 0.2
QGAY	≤ 0.2
CMAL	≤ 0.2
AHVR	≤ 0.2
VKER	≤ 0.2
KLLF	≤ 0.2
GVMW	≤ 0.2
RMEW	≤ 0.2
CSHI	≤ 0.2
KIAL	≤ 0.2
QLCN	≤ 0.2
KYNI	≤ 0.2
WAPV	≤ 0.2
QADA	≤ 0.2
CRAL	≤ 0.2
NPVG	≤ 0.2
HYNT	≤ 0.2

Variant	one-hybrid fitness for binding NBS DNA
LLSW	≤ 0.2
TPGA	≤ 0.2
GRIP	≤ 0.2
YTTE	≤ 0.2
NGYC	≤ 0.2
RWQV	≤ 0.2
SKLC	≤ 0.2
LDTG	≤ 0.2
KLIR	≤ 0.2
WMAT	≤ 0.2
CVQW	≤ 0.2
HRKV	≤ 0.2
RHGV	≤ 0.2
SSLM	≤ 0.2
QNET	≤ 0.2
RFDR	≤ 0.2
QVEL	≤ 0.2
QPDL	≤ 0.2
TWWE	≤ 0.2
HMKI	≤ 0.2
TGQG	≤ 0.2
YKKS	≤ 0.2
HHKV	≤ 0.2
REYQ	≤ 0.2

Variant	one-hybrid fitness for binding NBS DNA
TKPW	≤ 0.2
RRRF	0.442
CLWT	≤ 0.2
RYEM	≤ 0.2
QGNR	≤ 0.2
PSVW	≤ 0.2
VGPK	≤ 0.2
ISGK	≤ 0.2
PSVG	≤ 0.2
HHCA	≤ 0.2
AKRS	≤ 0.2
CSAF	≤ 0.2
SCRG	≤ 0.2
AHRG	≤ 0.2
QLKV	0.342
DMNG	≤ 0.2
HISR	≤ 0.2
HETV	≤ 0.2
VSWV	≤ 0.2
EDKW	≤ 0.2
GKIG	≤ 0.2
AGRY	≤ 0.2
AGDY	≤ 0.2
FMRT	≤ 0.2

Variant	one-hybrid fitness for binding NBS DNA
NAVK	≤ 0.2
RHRM	≤ 0.2
IAGG	≤ 0.2
GRMC	≤ 0.2
DLHA	≤ 0.2
SDPP	≤ 0.2
KPAS	≤ 0.2
RVSQ	≤ 0.2
SLYA	≤ 0.2
CYFG	≤ 0.2
WMES	≤ 0.2
CALW	≤ 0.2
EWTN	≤ 0.2
AQIN	≤ 0.2
VITG	≤ 0.2
TKCT	≤ 0.2
TFKH	≤ 0.2
YDTM	≤ 0.2
LIER	≤ 0.2
KYRC	≤ 0.2
YDIF	≤ 0.2
YNGI	≤ 0.2
QDND	≤ 0.2
QHYY	≤ 0.2

Variant	one-hybrid fitness for binding NBS DNA
HDTI	≤ 0.2
LEWT	≤ 0.2
PRWK	≤ 0.2
DHYM	≤ 0.2
YGTA	≤ 0.2
WMSG	≤ 0.2
YRLL	≤ 0.2
CIGS	≤ 0.2
VMAP	≤ 0.2
ALNT	≤ 0.2
WCVS	≤ 0.2
VAPP	≤ 0.2
MVQC	≤ 0.2
QACN	≤ 0.2
RTWD	≤ 0.2
YNRG	≤ 0.2
ADSL	≤ 0.2
DLSW	≤ 0.2
RHSP	≤ 0.2
RLMY	≤ 0.2
EASV	≤ 0.2
YSAL	≤ 0.2
YWKT	≤ 0.2
VLTC	≤ 0.2

Variant	one-hybrid fitness for binding NBS DNA
PYDR	≤ 0.2
VWLC	≤ 0.2
AIER	≤ 0.2
HENS	≤ 0.2
LCWL	≤ 0.2
PSNE	≤ 0.2
MERE	≤ 0.2
LRHP	≤ 0.2
GFNW	≤ 0.2
CFSY	≤ 0.2
WYSR	≤ 0.2
VHAM	≤ 0.2
IRRD	≤ 0.2
SMQS	≤ 0.2
NYMS	≤ 0.2
ILPE	≤ 0.2
YVTE	≤ 0.2
PNDQ	≤ 0.2
